Tested on: HSV-1
Assay: HSV-1 release from infected Vero cells, plaque assay

In the case of Ilaprazole, the “Total Titer HSV-1 in media, 72 h” value (Ilaprazole 4.5 μM) is reported as 9.00E+05, the “Total Titer HSV-1 in media, 72 h” value (Ilaprazole 9.0 μM) is reported as 2.20E+05 and the “Total Titer HSV-1 in media, 72 h” value (Ilaprazole 13.5 μM) is reported as 4.50E+02. The “Total Titer HSV-1 in media, 72 h” value (Ilaprazole 18.0 μM) was 1.00E+02.

— patent US20230265069A1, “Small Molecule Inhibitors That Block the Budding of Enveloped Viruses” (priority 2020, published 2023)
